PubChem BioAssay AID720542 (National Center for Advancing Translational Sciences (NCATS), 2013)
Hit rate of the full screen: of about 360,000 compounds, about 740 (0.21%) were called active. Inconclusive results, whose numbers are uncertain, are shown with a selection of clear calls. Calls follow the shape of the dose curve; as a rule, active = well fitted inhibition curve with a large enough effect; inconclusive = small, poorly fitted or top-dose-only effect; inactive = no such curve, though single readings can be large or run the other way. No potency is given beside an inconclusive call; the fits are too rough.

System: Plasmodium falciparum AMA1 (3D7) - RON2 peptide interaction
Experiment: qHTS for Inhibitors of AMA1-RON; Towards Development of Antimalarial Drug Lead: Primary Screen; also: nearly all actives have a fitted effect of over 45% in size;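 as to activity change, negative = inhibition: 0% = vehicle wells and -100% = peptide control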
Conditions: AlphaScreen AMA1-biotinylated RON2 peptide binding; activity change, negative = inhibition: at 58.2 µM (top of the series) unless noted
Method in brief: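 AMA1 (3D7) with his tag at 25 nM final met compounds first, then biotinylated RON2 peptide at 25 nM; detection used donor plus acceptor beads, 10 µg/mL apiece, read by AlphaScreen after 30 min at room temperature.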
Potency is read from the fitted curve at half-maximal effect; tags tell the direction and shape of the fitted curve.

**Q.** How did the Potency turn out when COc1ccc(NP(=O)(Oc2ccc(Cl)cc2)Oc2ccc(Cl)cc2)cc1OC was run?
**A.** Its Potency is inconclusive [inhibitor, partial curve].

**Q.** With C[C@@H]1CN([C@H](C)CO)S(=O)(=O)c2ccc(C#Cc3ccccc3)cc2O[C@H]1CN(C)C(=O)Nc1ccc2c(c1)OCO2 as the compound, how does the Potency read?
**A.** The Potency was inconclusive [inhibitor, partial curve].

**Q.** CNc1nc(Nc2ccc(Br)cc2)nc(N)c1[N+](=O)[O-] was tested. Which activity change, negative = inhibition did it give?
**A.** Its activity change, negative = inhibition is inconclusive: -18.1% [inhibitor].

**Q.** For COCCN(CC(=O)Nc1cccc(S(=O)(=O)N2CCCC2)c1)Cc1nc2ccccc2c(=O)[nH]1, which “activity change, negative = inhibition” value is on record?
**A.** The value was inactive: 88.2%.

**Q.** For Oc1cc2c(cc1CN1CCN(c3ccc(F)cc3)CC1)OCO2, which Potency is on record?
**A.** The Potency was active: 31.6 µM.

**Q.** With O=c1c(Cl)nc2cc(Cl)ccc2n1CCNc1ncc(C(F)(F)F)cc1Cl as the compound, how does the “activity change, negative = inhibition” value read?
**A.** Its value is inactive: 27%.

**Q.** O=C(Nc1ccc(O)cc1C(=O)O)c1ccc2c(c1)C(=O)N(Cc1ccco1)C2=O was tested. Which Potency did it give?
**A.** Its Potency is inconclusive [inhibitor, single point].

**Q.** With COc1ccc2noc3c2c1C(=O)c1ccccc1-3 as the compound, how does the Potency read?
**A.** Its Potency is inconclusive [inhibitor, partial curve].

**Q.** How did the “activity change, negative = inhibition” value turn out when CCC/C=N/NC(=O)c1cc(-c2ccccc2)nc2ccccc12 was run?
**A.** Its value is inactive: 0.613%.

**Q.** CCCN(CCC)C(=O)CC(c1ccccc1)c1ccco1 (centres undefined) was tested. Which “activity change, negative = inhibition” value did it give?
**A.** The value was inactive: -10%.

**Q.** Fc1ccc(N2C(=S)SC(=Nc3ccccc3)C2=Nc2ccccc2)cc1 was tested. Which Potency did it give?
**A.** The Potency was inconclusive [inhibitor, full curve].

**Q.** O=S(=O)(c1cc(O)ccc1O)c1cccc2c(S(=O)(=O)c3cc(O)ccc3O)cccc12 was tested. Which Potency did it give?
**A.** The Potency was active: 8.91 µM.

**Q.** With Cc1nc2c3cc(F)ccc3n(Cc3ccccc3F)c2s1 as the compound, how does the Potency read?
**A.** The Potency was inconclusive [inhibitor, partial curve].

**Q.** With C(=N\N1CCN(Cc2cccc3ccccc23)CC1)/c1cccnc1 as the compound, how does the Potency read?
**A.** Its Potency is inconclusive [inhibitor, single point].

**Q.** For CN1C(=O)NC(=O)/C(=C\c2ccc([N+](=O)[O-])o2)C1=O, which Potency is on record?
**A.** The Potency was inconclusive [inhibitor, partial curve].

**Q.** Which Potency does the source give for CC1CN(C(=O)CN2C(=O)NC(C)(c3ccccc3)C2=O)CC(C)O1 (centres undefined) here?
**A.** Its Potency is inconclusive [inhibitor, single point].

**Q.** With CC(Cl)C(=O)Nc1c2c(nn1-c1ccccc1)CSC2 (centres undefined) as the compound, how does the “activity change, negative = inhibition” value read?
**A.** The value was inactive: 5.78%.

**Q.** With O=[N+]([O-])c1ccc(N2CCN(Cc3ccc(Br)o3)CC2)cc1 as the compound, how does the Potency read?
**A.** The Potency was inconclusive [inhibitor, partial curve].

**Q.** With CCCC(C)c1nnc(NC(=O)COc2ccc3c(c2)OCO3)s1 (centres undefined) as the compound, how does the Potency read?
**A.** The Potency was inconclusive [inhibitor, partial curve].

**Q.** Which Potency does the source give for Cc1ccc(C2C3=C(CC(C)(C)CC3=O)NC3=C2C(=O)c2ccccc23)cc1 (centres undefined) here?
**A.** Its Potency is inconclusive [inhibitor, partial curve].

**Q.** CCC(=O)Oc1ccc(C(=O)Nc2cccc(C(=O)NC(C)(C)C)c2)cc1 was tested. Which Potency did it give?
**A.** Its Potency is inconclusive [inhibitor, partial curve].

**Q.** Which Potency does the source give for CN=c1scc(-c2ccccc2F)n1/N=C(\C)c1cccnc1 here?
**A.** The Potency was inconclusive [inhibitor, partial curve].

**Q.** How did the Potency turn out when CCOC(=O)c1ccc[n+](C(C)C(=O)c2ccc(-c3ccccc3)cc2)c1 (centres undefined) was run?
**A.** The Potency was inconclusive [inhibitor, single point].

**Q.** For CC(=S)c1c(C)cc2cc(C)ccn12, which Potency is on record?
**A.** Its Potency is inconclusive [inhibitor, partial curve].

**Q.** CC1NC(=O)NC1CCCCCC(=O)NCCc1ccccc1 (centres undefined) was tested. Which Potency did it give?
**A.** The Potency was active: 1.5 µM.

**Q.** For COc1cccc(=O)c2c(C)n(-c3ccc(C(=O)O)cc3)c(C)c12, which “activity change, negative = inhibition” value is on record?
**A.** The value was inactive: 2.79%.

**Q.** Which Potency does the source give for O=C(O)c1ccccc1NCc1ccco1 here?
**A.** Its Potency is inconclusive [inhibitor, partial curve].

**Q.** How did the Potency turn out when O=[N+]([O-])c1ccc(COc2ccc(Br)cc2CN2CCOCC2)cc1 was run?
**A.** Its Potency is inconclusive [inhibitor, partial curve].

**Q.** How did the Potency turn out when Cc1ccc(C)c(N2CCN(C(=O)c3cc4sccc4n3C)CC2)c1 was run?
**A.** The Potency was inconclusive [inhibitor, single point].

**Q.** Which “activity change, negative = inhibition” value does the source give for Nc1c(C(=O)N/N=C/c2cccnc2)oc2nc(-c3ccccc3)cc(-c3ccco3)c12 here?
**A.** The value was inactive: 50%.

**Q.** Cc1c(OCC(=O)N(C)C)ccc2c3c(c(=O)oc12)CCCCC3 was tested. Which “activity change, negative = inhibition” value did it give?
**A.** The value was inactive: -5.58%.

**Q.** For COc1cc2c3c(c1)c(C1=NC(=S)NC1=O)c(O)n3C(C)(C)C=C2C, which Potency is on record?
**A.** The Potency was inconclusive [inhibitor, partial curve].

**Q.** With O=C(COc1ccccc1C(=O)N/N=C\c1ccc(O)c(O)c1)N/N=C/c1ccc(O)c(O)c1 as the compound, how does the Potency read?
**A.** Its Potency is inconclusive [inhibitor, full curve].

**Q.** For COCCNC(=O)C(=O)Nc1ccc(Br)cc1, which Potency is on record?
**A.** The Potency was inconclusive [inhibitor, single point].

**Q.** Which Potency does the source give for CN(C(=O)COC(=O)c1cc(-c2ccco2)nc2ccccc12)C1CCS(=O)(=O)C1 (centres undefined) here?
**A.** Its Potency is inconclusive [inhibitor, partial curve].

**Q.** For CCN=C1S/C(=C\c2cn(CC)c3ccccc23)C(=O)N1CC, which Potency is on record?
**A.** Its Potency is inconclusive [inhibitor, partial curve].

**Q.** How did the “activity change, negative = inhibition” value turn out when CC(C)N1CCN(Cc2cccn2-c2nccs2)CC1CCO (centres undefined) was run?
**A.** Its value is inactive: 15.4%.

**Q.** CCCCC(=O)Nc1ccc(NC(=O)C2CC2)cn1 was tested. Which Potency did it give?
**A.** Its Potency is inconclusive [inhibitor, partial curve].

**Q.** For Cn1c(O)c(C(=Nc2ccc(F)cc2)c2ccccc2Cl)c(=O)n(C)c1=O, which Potency is on record?
**A.** Its Potency is inconclusive [inhibitor, full curve, poor fit].

**Q.** With Nc1ccccc1Nc1cc(-c2ccccc2)nn1-c1ccccc1 as the compound, how does the Potency read?
**A.** Its Potency is inconclusive [inhibitor, partial curve].

**Q.** With CN(C1=C(N2CCCCC2)C(=O)c2ccccc2C1=O)c1ccccc1 as the compound, how does the Potency read?
**A.** Its Potency is active: 9.47 µM.

**Q.** For Cc1n[nH]c(C)c1NC(=O)CN1CCN(S(=O)(=O)c2ccc(C(F)(F)F)cc2)CC1, which Potency is on record?
**A.** The Potency was inconclusive [inhibitor, single point].

**Q.** Which “activity change, negative = inhibition” value does the source give for CCCn1c(-c2ccc(F)cc2)n[nH]c1=S here?
**A.** The value was inactive: 10.6%.

**Q.** With Cc1ccc(C)n1-c1sccc1C(=O)O as the compound, how does the Potency read?
**A.** Its Potency is inconclusive [inhibitor, partial curve].

**Q.** CC1Sc2ccc(S(=O)(=O)N3CCN(c4cccc(Cl)c4)CC3)cc2NC1=O (centres undefined) was tested. Which “activity change, negative = inhibition” value did it give?
**A.** The value was inactive: -4.71%.

**Q.** Which Potency does the source give for CCOc1ccc(NC2c3ccccc3C(=O)N2Cc2ccco2)cc1 (centres undefined) here?
**A.** The Potency was inconclusive [inhibitor, single point].

**Q.** CCN(CC)c1ccc(/C=N/Nc2nc(C)cc(C)n2)c(O)c1 was tested. Which Potency did it give?
**A.** Its Potency is inconclusive [inhibitor, single point].

**Q.** Which Potency does the source give for COc1ccc(-n2nnnc2C(CCSC)N2CCN(C/C=C/c3ccccc3)CC2)cc1 (centres undefined) here?
**A.** The Potency was inconclusive [inhibitor, partial curve].

**Q.** How did the Potency turn out when CC(C)OC(=O)c1cc2c(ccn2C)n1CC(=O)N1CCC(Cc2ccccc2)CC1 was run?
**A.** Its Potency is inconclusive [inhibitor, partial curve].

**Q.** Cc1cc(=O)oc2c(N)c(O)ccc12 was tested. Which “activity change, negative = inhibition” value did it give?
**A.** The value was inactive: 5.53%.

**Q.** How did the Potency turn out when CC(=O)N(/N=C1\Sc2ccccc2C1=O)c1ccccc1C was run?
**A.** Its Potency is inconclusive [inhibitor, partial curve].

**Q.** For CC(C)=CCCC1(C)C=Cc2c(ccc3c2[nH]c2cc(O)c(C)cc23)O1 (centres undefined), which Potency is on record?
**A.** The Potency was inconclusive [inhibitor, partial curve].

**Q.** O=C(C1CCN(Cc2ccc(F)cc2)CC1)N(CCc1ccccc1)Cc1ccccc1 was tested. Which Potency did it give?
**A.** Its Potency is inconclusive [inhibitor, partial curve].

**Q.** How did the Potency turn out when COc1ccc(/C=C2\CC/C(=C\c3ccc(OC)c(OC)c3)C2=O)cc1OC was run?
**A.** The Potency was inconclusive [inhibitor, full curve, poor fit].

**Q.** How did the Potency turn out when COc1ccc(NC(=O)C2CCN(C(=O)Cc3ccccc3)CC2)cc1OC was run?
**A.** The Potency was inconclusive [inhibitor, partial curve].

**Q.** Which Potency does the source give for O=[N+]([O-])c1cc(/C=N/N2CCCCC2)ccc1Cl here?
**A.** Its Potency is inconclusive [inhibitor, single point].

**Q.** How did the Potency turn out when S=C(N=Nc1ccccc1)NNc1ccccc1 was run?
**A.** Its Potency is inconclusive [inhibitor, partial curve].

**Q.** Which Potency does the source give for COc1cc2c(cc1O)CCN(C(=O)c1ccco1)C2C (centres undefined) here?
**A.** Its Potency is inconclusive [inhibitor, partial curve].

**Q.** With COc1cccc(NC2=C(NCCO)C(=O)c3ccccc3C2=O)c1 as the compound, how does the Potency read?
**A.** The Potency was inconclusive [inhibitor, single point].

**Q.** Which Potency does the source give for COc1ccc2sc(N(CCCN(C)C)C(=O)c3ccc(S(=O)(=O)N4CCc5ccccc5C4)cc3)nc2c1 here?
**A.** The Potency was inconclusive [inhibitor, partial curve].

**Q.** COc1ccc(C(CNC(=O)c2nn(-c3ccccc3)c(=O)c3ccccc23)N2CCOCC2)cc1 (centres undefined) was tested. Which “activity change, negative = inhibition” value did it give?
**A.** Its value is inactive: 0%.

**Q.** How did the Potency turn out when Cc1ccc(NC(=O)CN2CCN(Cc3ccccc3)CC2)c(Br)c1 was run?
**A.** Its Potency is active: 20 µM.

**Q.** Which Potency does the source give for Cc1cccc(C(=O)N2CCN(c3ccc([N+](=O)[O-])c(NCc4ccco4)c3)CC2)c1 here?
**A.** The Potency was inconclusive [inhibitor, single point].

**Q.** For Cc1ccc(N2C(=O)C3CCCN3C2=S)cc1Cl (centres undefined), which Potency is on record?
**A.** The Potency was inconclusive [inhibitor, single point].

**Q.** With CCCSc1ccc(C(=O)Nc2ccc(F)cc2F)cn1 as the compound, how does the “activity change, negative = inhibition” value read?
**A.** Its value is inactive: 23.3%.

**Q.** How did the Potency turn out when COc1ccc(-c2csc3ncnc(N4CCN(c5ccc(OC)cc5)CC4)c23)cc1 was run?
**A.** The Potency was inconclusive [inhibitor, partial curve].

**Q.** Which “activity change, negative = inhibition” value does the source give for Cc1nonc1C(=O)N1CCCC(N2CCN(c3ccc(F)cc3)CC2)C1 (centres undefined) here?
**A.** Its value is inactive: -7.61%.

**Q.** Cn1ccc2cc(OCc3ccccc3)ccc21 was tested. Which Potency did it give?
**A.** Its Potency is inconclusive [inhibitor, partial curve].

**Q.** For Cc1nc(NC(=O)C23CC4CC(CC(C4)C2)C3)sc1Cc1ccc2c(c1)OCO2, which Potency is on record?
**A.** Its Potency is inconclusive [inhibitor, partial curve].
